Experimental data from the supplement of paper PMC5499739.
In all, about 16,000 sequences were measured (“Z-score”: median about -0.37, highest 2% from about 3.2 on). The list shows a part of the results.

The sequences below were run on RBM10 RRM1-ZnF (GST-tagged construct) (assay: RNAcompete 7-mer binding Z-score; higher = stronger binding preference).
Outline: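 Bound RNA was identified by microarray hybridisation after GST-tagged RBM10 constructs (20 pmol) had been mixed with 1.5 nmol of a designed pool of 241 399 RNAs up to 41 nt, transcribed from microarray-derived DNA templates. Binding ran for 30 min at 4°C in 1 ml Hepes pH 7.8 buffer with KCl, NaCl, glycerol, DTT, BSA and glutathione Sepharose beads, with four 2-min washes at 4°C afterwards. For every heptamer motif, a one-sided Z-score for enrichment was computed across the probes that contained it.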

Sequence	RNAcompete 7-mer binding Z-score
ACGUAUG	-0.0252
CCCACAA	-0.535
CUCUGCU	-0.789
AAACUCC	-0.685
UCUACGA	-0.617
UGACCAA	-0.37
GCACGAU	0.0918
CGCCCCC	-0.35
AUCCGGA	-0.435
UGCAAAG	0.244
UUGACAU	-0.467
UAAGGUG	2.16
CGUCCUG	-0.467
UGCGAUA	-0.223
GCACAGG	1.19
CACGCUG	-0.0155
GACCACC	-0.483
AGAGCAA	-0.0479
CGAUUGU	-0.435
CAAUGUA	-0.126
UCCAACU	-0.85
AGGGCUA	1.13
CGUAUUU	-0.769
UCGUGUU	-0.652
CGGUGGG	3.2

Sequence	RNAcompete 7-mer binding Z-score
CUUAGCG	-0.704
CGAGGGA	2.84
AAGCCUA	-0.759
AUACUAC	-0.672
AGGGUUA	3.55
CGAGUGC	-0.0414
CCCCGUA	-0.402
GAAAUUU	-0.418
CUUGUAU	-0.72
GACUCGA	-0.5
CGAGGAC	0.501
GGGGACG	2.55
UAUCAAU	-0.652
UGAGCAU	-0.0999
AAGUGAU	0.459
AGGGCUC	0.0983
AUCGUAG	-0.275
GUAUCUG	-0.532
AGCGACG	0.478
GGAUGGU	3.9
AGUACGC	-0.49
UGCAGUG	0.215
UAUUCAC	-0.678
CUUUAGG	-0.36
CCAAGAU	-0.766

Sequence	RNAcompete 7-mer binding Z-score
AAAGGGG	4.5
ACCGUCC	-0.772
AACUAUG	-0.402
UCUCUGU	-0.782
CAUCUCU	-0.896
GUAUAAG	0.833
CAAUGGU	0.862
UCAAGGU	0.683
CGCGUAU	-0.399
GCUUGAG	-0.0382
UUACCAG	-0.597
ACGUGGC	0.03
ACCGGCU	-0.626
CCAAGCU	-0.802
UAUUGGG	2.33
UGAUUGU	-0.305
CCGCACU	-0.604
GGCUGGG	2.33
UCUGUUG	-0.558
GCAUUGA	0.017
UUUCUGC	-0.831
GCAUCUC	-0.629
UCGCGAA	-0.581
UUAACUA	-0.578
ACUUAUC	-0.717

Sequence	RNAcompete 7-mer binding Z-score
UCGCAAG	-0.457
UUCCUUA	-0.837
CGUAUGU	-0.347
GUCUAAG	-0.292
AGCCCAA	-0.597
ACGACAU	-0.337
CUAACAC	-0.75
CUUCGGG	0.248
CCUUGGG	0.283
UACCGCC	-0.694
ACGUCGU	-0.327
CCAGCUU	-0.711
AUAUUGU	-0.402
AGCAAGG	2.66
UCGCUUG	-0.743
AUCCCAA	-0.802
CAUAAGC	-0.714
CUGACCU	-0.932
UCAAACC	-0.86
CAGCUCG	-0.704
CUCGUGU	-0.526
GCAUCAA	-0.464
UUGUUAG	-0.0804
GUGUUCA	-0.22
CCCGCGU	-0.444

Sequence	RNAcompete 7-mer binding Z-score
CGAUCGA	-0.262
CGGCUAA	-0.201
UUAGCUC	-0.678
UCAAAGA	-0.399
GCACUAA	-0.34
UCGUGUA	-0.22
CCGCGCU	-0.496
UCCUUUG	-0.876
AUUGAUU	-0.373
UCCGCAC	-0.714
CACGCUU	-0.698
AUCAUGA	-0.435
UCACCUA	-0.746
UUUCCUC	-0.824
CGAUCCG	-0.629
GGCGAAA	0.829
UCGAACC	-0.668
AAAAAUG	0.069
CGGUGGC	1.14
CGGAGUU	0.387
AAAAAGC	-0.214
UUUACAC	-0.792
AGGAGCC	0.267
CAGCCAC	-0.561
CAUACGU	-0.415

Sequence	RNAcompete 7-mer binding Z-score
GAGGUUC	0.238
AGUAAUG	0.368
CGUUGCG	0.131
ACGCAGA	0.199
ACACAAG	-0.246
CAGCACC	-0.578
AACAACU	-0.483
CUAGCGG	0.417
UCCCUAG	-0.574
UCAACUU	-0.86
AAAGCCG	-0.561
UUGCGAU	-0.405
GUUAUGA	0.202
GCUAGAA	0.0918
CGGACGC	0.251
UAGUCUA	-0.383
ACAUGCG	-0.272
UUACUAA	-0.571
CGACCUU	-1.02
CACCCCC	-0.301
ACCGGAU	-0.272
CAGAAUG	0.378
UUUCAGU	-0.561
GCCCUUG	-0.607
AAGGGGA	4.47

Sequence	RNAcompete 7-mer binding Z-score
AUGAGCC	-0.318
CUAUCUU	-0.733
AGGCCUU	-0.743
UCAUCUU	-0.893
UCUCAGG	-0.0804
GACGUUG	0.0625
CUACCUU	-0.906
CUCAUGG	-0.103
AGUCCAG	-0.201
UAAUGAC	-0.305
CGGGCUC	0.209
UGUCACG	-0.376
GUUGAUA	0.511
UAAUAUC	-0.477
CCUGGCG	-0.0934
UCCUGAU	-0.737
UAGGAGC	1.6
UACUAGC	-0.591
AUGAAUA	-0.00246
GUCUCUA	-0.639
CUUGCUG	-0.746
UGUCGGG	1.27
UCGCCUA	-0.665
CUGCCUC	-0.61
CAGUUCU	-0.828

Sequence	RNAcompete 7-mer binding Z-score
UGCCACG	-0.435
AUACAAG	0.0268
UUUGCAA	-0.587
UUCGUCU	-0.636
AUUGGCA	0.293
UACCCCC	-0.386
UAUGCAC	-0.422
AUAGGGA	2.86
UACGAUU	-0.532
CUGCCGA	-0.581
CCUUACC	-0.805
CUGAACG	-0.249
ACUGGAC	0.102
UCUCGAU	-0.685
GCAGUAG	0.595
CCCUUGU	-0.802
GAGGACU	0.485
ACCACCU	-0.539
GGACAAC	0.374
AAUUCCG	-0.834
GAAUUCG	-0.21
GCACAGC	-0.262
GGUGAGC	2.59
UAUGCGA	0.0885
CAUCUCA	-0.798

Sequence	RNAcompete 7-mer binding Z-score
CUUCAUU	-0.753
AAACCUG	-0.503
CCGAUGU	-0.587
AUUGAAC	-0.318
AUACUGC	-0.532
GCUGUGA	0.124
UAGUCCU	-0.607
CUACCGC	-0.617
UUAGGAA	1.03
AAUAUCU	-0.539
ACGAUGG	1.54
CCCUCUA	-0.753
AUAUACU	-0.454
AUCACAG	-0.158
AUCUUGU	-0.808
AUUAAAA	-0.513
GUAGCAU	-0.0317
ACGCUUC	-0.85
CGCAGUG	-0.0967
AUUCACG	-0.646
CAAGGUA	1.5
AACUAGA	-0.418
GGUCGAU	0.209
GGUCACA	0.322
CAAGAUU	-0.607

Sequence	RNAcompete 7-mer binding Z-score
GCUCUGG	-0.0674
UAUGGAC	1.2
CCGUUGC	-0.574
GCUCAUU	-0.617
CGGUCAU	-0.191
UGCGCUU	-0.581
UCGCUCA	-0.642
CCGGCGC	-0.431
AUGCUGA	0.102
AUAAAUA	-0.262
ACCUCUC	-0.737
GACAUUC	-0.75
CCCCAGC	-0.175
CCAUCUG	-0.772
CCGGUAG	0.248
UCUCCCU	-0.519
ACUUUGC	-0.902
UCUCACA	-0.763
AAGCAAU	-0.321
UGAGCAC	-0.292
AAAGGAU	2.99
CGAGGCU	0.0658
UUACAUU	-0.756
GUCUUCG	-0.532
CUGAUUC	-0.811

Sequence	RNAcompete 7-mer binding Z-score
UAUUCUU	-0.847
CUUAGUC	-0.711
GGUUCAU	-0.178
CCGGGCU	-0.337
GGCCAAC	-0.0577
UUUGCUC	-0.867
CAAGGGU	2.65
UUGAAUG	0.131
UUGUGAU	-0.347
GCAUUGC	-0.246
CACCAAA	-0.675
GAUCUAC	-0.717
CUUUCUC	-0.945
GCCACCG	-0.171
UCCUACA	-0.896
UCAGAAC	-0.383
UCUUAUC	-0.86
CACAAGG	0.764
UGUCAUA	-0.552
UACAUCC	-0.844
UCAGAAA	-0.266
UCCCAAU	-0.854
GAGCUCU	-0.704
UGCCAGU	-0.438
UCAUACA	-0.509

Sequence	RNAcompete 7-mer binding Z-score
AACCUAU	-0.893
GCACCCC	-0.0382
UGGCGAC	0.576
GGCAAGU	0.68
AGGCAGG	1.8
AGCCGUC	-0.545
AAAGUCG	-0.0155
AAUACAC	-0.584
UAUCGGC	-0.597
UCCCCUU	-0.545
GUUAGAU	0.215
CUUACGU	-0.841
GCCUUGA	-0.672
UCAAAAG	-0.49
CAAAUAC	-0.513
UUCGUUG	-0.162
CAGUCGC	-0.288
AGAAUUA	-0.197
CCCCUGC	-0.363
CCAUGUA	-0.568
AAUAAAC	-0.552
CUGCGCC	-0.626
CUGGUGC	0.14
AUCGCCG	-0.685
AAAACGC	-0.428

Sequence	RNAcompete 7-mer binding Z-score
UCAGGAU	0.469
UUAUGGC	-0.311
AUAACAG	0.157
CACCGGC	-0.188
ACAUACG	-0.145
AUAAAUU	-0.639
AAGUGCC	-0.496
CUAGGAU	0.573
CACCUUU	-0.873
AGAGGAG	1.69
AUCACCA	-0.649
CAGAAUA	-0.389
GUAUUUA	-0.288
GUUAAUU	-0.243
UCCGUGC	-0.746
CGUUAGA	-0.379
GCCAAAA	-0.633
AAUAUUC	-0.584
CAGCCGG	-0.418
CUCAGGA	-0.0902
AAUUGAC	-0.35
AGCCGUU	-0.808
GUCCGUU	-0.431
CGAUAUC	-0.646
GUGUCCU	-0.415

Sequence	RNAcompete 7-mer binding Z-score
CUCGAGA	-0.37
ACGGUCU	-0.62
GACGUAA	-0.0447
GCGUCAG	0.199
UCUUAGU	-0.672
UACGGUG	1.23
GCACGGG	2.27
AAUAGGC	0.192
GUGGAAU	2.68
GGGACUC	0.842
CGUUCUG	-0.73
CUUUAAC	-0.854
CUAAGAC	-0.649
GCGAGAG	1.17
AACCUGA	-0.639
UACUGAG	-0.0122
AUACCAA	-0.617
GUCAGGU	1.34
CACUCGU	-0.552
UUUCACU	-0.737
GAACGUC	-0.496
UACUGUA	-0.542
CUUGCAA	-0.824
CAGGACC	-0.155
CCCAUGU	-0.772

Sequence	RNAcompete 7-mer binding Z-score
AGACGGU	0.569
CUUAUUA	-0.714
UUCGCUC	-0.704
ACCAUUU	-0.993
GGUAUAA	1.23
AUCGUUC	-0.711
GUCGGCU	-0.0252
GGGCAGC	1.32
GGUUCCU	-0.256
ACGCCUG	-0.581
UGCCUUA	-0.798
GGGGCCU	0.807
CUUGCCG	-0.974
GGAGAAG	3.36
UCACUUC	-0.824
AGGUGAG	2.63
GUUCACU	-0.613
